Experimental findings from PubChem BioAssay AID1346428 (National Center for Advancing Translational Sciences (NCATS), 2018) are described below.

Structures are written as SMILES. Where “and” joins values, the source holds several entries; their conditions need not be identical. Identical values can stand only once. Among all 48,000 compounds or so, about 1,200 (2.5%) were called active. About 2% were inconclusive and are not listed.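 The calls were made as follows: active = activation of at least 60% and not above a set upper limit (about 1 call in 100 departs from these limits); inconclusive = activation of 40% to 60%, or above that upper limit; inactive = activation under 40%.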 The list shows a part of the results.

This assay concerns the target Probable G-protein coupled receptor 32 (Homo sapiens) (UniProt O75388). Kind of assay: qHTS for Agonists of Human Resolvin D1 Receptor DRV1. Also: 0% is about no effect. Particulars: CHO-K1 GPR32 beta-arrestin PathHunter luminescence, 90 min; at 76.9 µM; stronger effect = higher value; zero percent set by DMSO-only wells. The essentials: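 PathHunter beta-arrestin recruitment in CHO-K1 cells stably expressing ProLink-tagged GPR32. Cells were exposed to compound for 90 min at 37 C, then chemiluminescence was read after 1 h detection at ambient temperature; DMSO served as basal control.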
Chain of UniProt O75388 (O75388 whole entry, looked up): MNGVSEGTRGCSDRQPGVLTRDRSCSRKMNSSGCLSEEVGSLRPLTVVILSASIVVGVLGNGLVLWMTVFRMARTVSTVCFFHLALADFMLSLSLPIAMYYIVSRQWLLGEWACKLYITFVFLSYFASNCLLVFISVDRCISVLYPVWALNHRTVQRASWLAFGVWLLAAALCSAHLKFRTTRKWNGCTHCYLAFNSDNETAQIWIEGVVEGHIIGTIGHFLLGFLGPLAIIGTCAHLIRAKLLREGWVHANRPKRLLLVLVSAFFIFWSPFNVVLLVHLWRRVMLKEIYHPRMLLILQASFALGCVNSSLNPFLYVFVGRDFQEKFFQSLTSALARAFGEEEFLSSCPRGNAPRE
Background: In qHTS, concentration-response curves come from the screen itself.
Take `CNC(=O)c1ccc2c(c1)N(Cc1cc(C)ccc1C)C(=O)c1ccccc1S2`: the activation is inactive: -35%.
In the case of `O=C(CN1C(=O)CC(c2ccccc2)=Nc2ccccc21)Nc1ccc(Br)cc1` it was inactive: -24.5%; in that of `COc1ccc(CNC(=O)c2ccc(-c3nc(CSc4ccc(C)cc4)c(C)o3)cc2)c(OC)c1`, inactive: -4.86%.
Next, `Cc1cccc(CCNC(=O)c2cc3c(s2)-c2c(C)cccc2OC3)c1`: inactive: -6.78%; `O=C(NCCc1ccccc1)c1ccc(Nc2nc3ccccc3n3nnnc23)cc1`: inactive: 6.42%; `CCCN1CCN(C(=O)Cn2c(-c3cccs3)cc3cc(F)ccc32)CC1`: inactive: 17.2%.
Next, `Cc1ccc2c(c1)N(C(=O)Nc1cccc3c1CCCC3)CCO2`: inactive: -28.3%; `COc1ccc(C2c3c(n(C)c4ccccc34)C(=O)N2CC(=O)Nc2cccc(Cl)c2)cc1` (configuration not stated): inactive: -19.9%.
`CCOC(=O)c1c(NC(=O)CSc2cn(CCNC(=O)c3ccc(OC)cc3)c3ccccc23)sc2c1CCCC2`: the activation is inactive: -2.48%.
Next, `Cc1ccccc1C(=O)Nc1cccc(OCc2cc(=O)n3cccc(C)c3n2)c1`: inactive: -11.9%; `Cc1cc(OC(C)C(=O)N(Cc2ccc(N(C)C)cc2)Cc2ccco2)ccc1Cl` (configuration not stated): inactive: -27.4%.
In the case of `CC1CCCN(CCCNC(=O)c2ccc3c(c2)N(Cc2ccc(Cl)cc2)C(=O)c2ccccc2S3(=O)=O)C1` (configuration not stated) it was inactive: -25.5%; in that of `CCc1ccc(NC(=O)CN2C(=O)CSc3ccc(S(=O)(=O)N(C)C)cc32)cc1`, inactive: -16.4%; in that of `Cc1ccc(C)c(NC(=O)Cn2cc(S(=O)(=O)Cc3cccc(Cl)c3)c3ccccc32)c1`, inactive: -3.5%.
Turning to `O=C(NCc1ccccc1)c1ccc2c(c1)CCN2S(=O)(=O)c1ccc(Cl)cc1`, the activation was inactive: -6.9%.
On to `CCOc1ccc(NC(=O)N2CCN(c3ccc(Cl)c(Cl)c3)CC2)cc1`, for which the activation was inactive: 5.26%.
For the compound `CC(=O)O[C@]1(C(C)=O)CC[C@H]2[C@@H]3C=C(Cl)C4=CC(=O)CC[C@]4(C)[C@H]3CC[C@@]21C`, the activation was inactive: -30.2%.
Next, `COc1ccc2cc3c(N)nn(C(=O)c4ccccc4Cl)c3nc2c1`: inactive: 16%; `COc1ccc(-c2noc(CN(C(=O)C(C)Oc3ccc(C)cc3)C(C)C)n2)cc1` (configuration not stated): inactive: -19.5%.
Next, `CCn1cc(C(=O)NCCc2ccc(OC)c(OC)c2)c(=O)c2cc(S(=O)(=O)N(C)C3CCCCC3)ccc21`: inactive: -31.6%.
In the case of `CC(C)Oc1ccc(C(=O)N(Cc2ccc(N(C)C)cc2)C2CCS(=O)(=O)C2)cc1` (configuration not stated) it was inactive: -26.6%; in that of `CCCNC(=O)NS(=O)(=O)c1ccc(Cl)cc1`, inactive: -8.36% and inactive: 9.48%; in that of `CCN(CC)C(C)CN1c2ccccc2Sc2ccccc21` (configuration not stated), inactive: 21.5% and inactive: 45.8%.
With `CCc1ccc(NCc2cc3ccc(OC)cc3n(CC(=O)Nc3c(C)cc(C)cc3C)c2=O)cc1`, the activation is inactive: -20.3%.
Next, `CCOc1cccc(CNC(=O)c2ccc(N3CCCC3)c(NC(=O)NCc3ccccc3)c2)c1`: inactive: -28.7%; `Cc1ccccc1CNC(=O)CCS(=O)(=O)c1cc2c3c(c1)CCN3C(=O)CC2`: inactive: -23.2%; `COc1ccc(Cl)cc1NC(=O)Cn1ccn(-c2cc(C)cc(C)c2)c(=O)c1=O`: inactive: -11.6%.
Consider `Cn1nnc2c(N3CCN(c4ccc(F)cc4)CC3)ncnc21`, for which the activation is inactive: 8.4%.
Next, `Cc1ccc(Nc2sc(C(=O)c3ccccc3)c(N)c2S(=O)(=O)c2ccccc2)cc1Cl`: inactive: -43%.
Next, `Cc1ccc(N2CCN(C(=O)c3cc4cc5ccc(C)cc5nc4s3)CC2C)cc1` (configuration not stated): inactive: 8.26%; `COc1ccccc1N1CCN(C(=O)CCS(=O)(=O)c2ccc3c(c2)oc(=O)n3C)CC1`: inactive: -23.7%; `CCc1ccc(CNC(=O)Cn2nc(-c3ccc(C)cc3)ccc2=O)cc1`: inactive: -18.7%.
Turning to `COc1ccc(C)cc1NC(=O)CC1NCCNC1=O` (configuration not stated), the activation was inactive: -8.51%.
In the case of `Cc1cc(C)c2c(=O)cc(C(=O)Nc3sc4c(c3C(=O)NCC3CCCO3)CCCC4)oc2c1` (configuration not stated) it was inactive: 8.85%.
In the case of `Cc1ccc(Nc2nnc(-c3ccc(C)c(S(=O)(=O)N4CCOCC4)c3)c3ccccc23)cc1` it was inactive: -7.83%.
`COCCNC(=O)c1ccc2nc(Cc3ccccc3)oc2c1`: the activation is inactive: -3.81%.
For the compound `CC(C)N(CCCNC(=O)Cn1ncc2c([nH]c3ccccc32)c1=O)Cc1ccccc1`, the activation is inactive: -0.721%.
In the case of `CCC(=O)C1=C(c2ccc(OC)c(OC)c2)N(C(=O)CC)n2c(nnc2-c2ccc(C)cc2)S1` it was inactive: -22.2%; in that of `COc1ccc(-c2nc(CS(=O)(=O)CC(=O)NCCc3ccc(C)cc3)c(C)o2)cc1`, inactive: -5.92%.
Next, `CCOC(=O)c1ccc(NC(=O)CSc2nc3ccccc3c(=O)n2CCC(=O)NC2CCCCC2)cc1`: inactive: -0.748%.
For `CC(=O)c1ccc(N2CCN(c3ccc4cc(S(=O)(=O)N5CCCCC5)ccc4n3)CC2)cc1`, the activation was inactive: -17.1%.
Next, `CC(=O)c1cc(-c2ccccc2)n(CC(=O)Nc2ccc(C)c(C)c2)c1C`: inactive: -1.15%; `COc1ccc(OC)c(CNS(=O)(=O)c2ccc(-c3coc(C)n3)cc2)c1`: inactive: 16.5%; `CCOc1ccc(CNC(=O)CS(=O)(=O)c2cccc3nsnc23)cc1`: inactive: 14.3%.
On to `COc1ccccc1-c1nc(SCC(=O)NCc2ccccc2)c2c(=O)n(C)c(=O)n(C)c2n1`, for which the activation was inactive: 9.84%.
Next, `COc1ccccc1-c1noc(-c2ccc(NC3CCCC3)c([N+](=O)[O-])c2)n1`: inactive: 11.7%; `Cc1cc2nc(-c3ccc(NC(=O)c4ccccc4F)cc3)oc2cc1C`: inactive: -18.3%.
Next, `Cc1ccc(C)c(NC(=O)C2CCCN(c3ncnc4onc(C)c34)C2)c1` (configuration not stated): inactive: 1.14%.
Next, `COc1ccc(OC)c(C2=NS(=O)(=O)N(C)C(C(=O)Nc3ccc(F)cc3F)=C2)c1`: inactive: -14.9%.
Take `O=C(CSc1cn(CC(=O)N2CCCCC2)c2ccccc12)Nc1ccccc1`: the activation is inactive: -9.07%.
Next, `N#Cc1nc(-c2ccc(COc3ccc(Cl)cc3)o2)oc1N1CCC(C(N)=O)CC1`: inactive: 37%; `O=C(Cn1c(=O)n(-c2ccccc2)c(=O)c2c3c(sc21)CCCC3)Nc1ccc(F)cc1F`: inactive: -4.37%; `COc1ccc(OC)c(S(=O)(=O)NCCS(=O)(=O)N2CCN(c3ccccc3)CC2)c1`: inactive: 19%.
In the case of `Cc1cc(=O)n(Cc2ccc(Cl)cc2)c2c1c(C)nn2-c1ccccc1` it was inactive: -11.7%.
As for `COc1cccc(CNC(=O)c2cccc(-n3c(C)nc4cccnc43)c2)c1OC`, the activation is inactive: 9.01%.
In the case of `CCc1ccccc1NC(=O)N1CCCn2nc(C)cc21` it was inactive: -15%; in that of `O=C(NCC(c1ccco1)S(=O)(=O)c1cccs1)c1ccc(F)c(F)c1` (configuration not stated), inactive: -1.04%; in that of `O=C(NCc1noc2ccccc12)N1CCN(c2ccccc2)CC1`, inactive: -14.8%.
In the case of `CC1CCN(c2nn3c(=O)c(C(=O)NC(C)C)cnc3s2)CC1` it was inactive: -0.841%.
As for `Cc1nc(-c2ccccc2)sc1-c1ccc(SCC(=O)NCc2ccccc2Cl)nn1`, the activation was inactive: -14.8%.
Next, `Cc1nn(C)c2c1c(-c1ccccc1)cc(=O)n2CC(=O)NC(C)c1ccccc1` (configuration not stated): inactive: -4.77%.
In the case of `CCOc1ccc(-c2cc3nc(C4CCN(C(=O)OC(C)(C)C)CC4)c(C(=O)Nc4cc(OC)ccc4OC)cn3n2)cc1` it was inactive: -8.13%; in that of `CCN1CCOC(=O)C1CC(=O)Nc1ccc(Br)cc1` (configuration not stated), active: 74.4%.
In the case of `Cc1ccc(Cl)cc1NC(=O)c1sc(-n2nc(C)c(Cc3ccc4c(c3)OCO4)c2C)nc1C` it was inactive: 2.11%; in that of `O=C(Cn1c(=O)n(Cc2ccccc2)c(=O)c2sc3ccccc3c21)Nc1ccccc1`, inactive: -8.64%; in that of `CCCOc1ccc(C2c3c(-c4c(C)cc(C)cc4O)n[nH]c3C(=O)N2CCO)cc1` (configuration not stated), inactive: 23.7%.
As for `CCCCCn1c(CN2CCN(c3ccc(OC)cc3)CC2)nc2c1c(=O)[nH]c(=O)n2C`, the activation was inactive: -11.5%.
Next, `COc1ccc(-n2c(-c3ccco3)nc3c(cnn3-c3ccccc3Cl)c2=O)cc1`: inactive: -0.901%.
In the case of `Cc1ccc(Cl)cc1NC(=O)Nc1cccc(OCc2cc(=O)n3ccccc3n2)c1` it was inactive: -0.278%.
In the case of `CC(=O)c1cccc(NS(=O)(=O)c2cc3c(cc2C)N(C(C)=O)CCO3)c1` it was inactive: -10.9%; in that of `O=C(CCCc1ccccc1)NC1CC(=O)N(c2ccc(F)cc2)C1` (configuration not stated), inactive: -4.56%; in that of `CCc1cccc(NC(=O)c2ccc(NC(=O)N3CCSc4ncccc43)cc2)c1`, inactive: 2.84%.
Consider `Cc1ccc(NC(=O)N2CCC(CN3CCCC3)CC2)c(C)c1`, for which the activation was inactive: -18%.
In the case of `Cc1ccc(-c2nc(C(=O)NCc3ccccc3Cl)c3n2CCCCC3)cc1` it was inactive: -11.1%; in that of `Cc1ccc2nc(-c3cc(NC(=O)COc4ccc(C)c(C)c4)ccc3Cl)oc2c1`, inactive: -11.5%; in that of `CN1N=C(C(N)=O)CCC1=O`, inactive: 17.9%.
Next, `Cc1ccc(NC(=O)N2CCN(c3cc(-c4noc(C)n4)ccc3C)CC2)c(F)c1`: inactive: -2.14%.
In the case of `CCC(=O)Oc1ccc(C2Nc3ccccc3-c3nnc(SC)nc3O2)cc1` (configuration not stated) it was inactive: 3.36%; in that of `Cc1ccc(S(=O)(=O)Nc2cc3c(cc2N2CCOCC2)n(C)c(=O)n3C)cc1`, inactive: -0.39%; in that of `Cc1cccc(NC(=O)C(Cc2ccccc2)NS(=O)(=O)c2ccc3c(c2)c(=O)n(C)c(=O)n3C)c1` (configuration not stated), inactive: -8.89%.
In the case of `Cc1ccc(C(=O)NCC(c2ccc3c(c2)OCO3)N2CCOCC2)cc1` (configuration not stated), the activation is inactive: -11.5%.
Next, `Cc1c(-c2nc(-c3ccc4c(c3)OCO4)no2)nnn1-c1ccc(C(C)C)cc1`: inactive: -4.41%.
